According to patent US11407811B2, “Fusion protein, preparation method therefor and use thereof” (JIANGSU RONGTAI BIOTECH CO., LTD., priority 2017, dated 2022):

Experiments:
[1] = system: human retinal vascular endothelial cell (HRCEC); assay: MTT assay, proliferation of human retinal vascular endothelial cell (HRCEC); assay type: cell-based; settings: 48 hours
Description: The activity of the integrin blocker polypeptide to inhibit proliferation of human retinal vascular endothelial cells was examined by MTT assay. HRCEC cells were cultured in a 5% CO2 incubator at 37° C. to a density of 90% or more, and then collected by trypsinization. The cells were resuspended in the culture liquid and counted under a microscope. The cell concentration was adjusted to 3.0×10^4 cells/mL. The cell suspension was inoculated into a 96-well plate at 100 μL per well and cultured in a 5% CO2 incubator at 37° C. overnight. […] After the cells were fully adhered, each dilution was added to a 96-well plate at 100 μL per well, respectively. […] 20 μL of 5 mg/mL MTT was added to each well of a 96-well plate, and incubation was continued for 4 hours. The medium was aspirated and 100 μL of DMSO was added per well for dissolution. The absorbance was measured at 570 nm with a microplate reader with a reference wavelength of 630 nm, and the proliferation inhibition (PI) was calculated. The formula was as follows: […]
where Ntest is the OD value of the test group and Ncontrol is the OD value of the blank control group.
The test was repeated 5 times independently. The results obtained from the test were calculated as mean±SD, and statistical t-test was performed. P<0.05 was considered as significant difference, and P<0.01 was considered as extremely significant difference.

[2] = system: angiogenesis of chicken embryo chorioallantoic membrane; assay: Chicken embryo chorioallantoic membrane (CAM) angiogenesis assay; assay type: in vivo; settings: for Blood vessel number / PI: CAM, 72 hours; for inhibitory effect on angiogenesis of CAM: high dose
Text: In this study, CAM assay was used to investigate the activity of fusion protein I, protein II, protein III, protein IV, and protein V to inhibit angiogenesis in vivo. The study has shown that the biosynthesis rate of collagen reached the maximum on the 8th to 11th day of chicken embryo development, which was the most vigorous stage of angiogenesis, and the body's immune system had not yet been fully established at that time, and thus the chicken embryos developed to the 8th day was selected to be administered. […] The following steps were used.
(1) The White Leghorn chicken embryos on day 6 were cultured in a 37° C. incubator at 60%-70% humidity for two days.
(2) A 1.0 cm×1.0 cm window was drilled above the chicken embryo air sac, and the inner membrane was torn off with forceps to expose the chorioallantoic membrane. Lens paper having a diameter of 5 mm was used as a loading carrier, and was placed on the chorioallantoic membrane of the chicken embryo air sac. Filter paper with PBS was used as a blank group, and the administration group was added with different doses of fusion protein.
(3) The chicken embryo air sac was sealed with a sterile transparent tape, and after culturing at 37° C. for 72 hours, the chicken embryo air sac was opened, and a fixative (formaldehyde:acetone=1:1) was added for fixation for 15 minutes. The chorioallantoic membrane to which the lens paper was adhered was taken out, the distribution of the new blood vessels was observed, and the new blood vessels were counted and photographed. Five replicates were set for each dose and the results were statistically analyzed.

[3] = system: retinal blood vessels in OIR mice; assay: Retinal blood vessels in OIR mice; assay type: in vivo; settings: dose 64 μg, injected into the vitreous body on day 13, evaluated on day 17
Text: Establishment of the OIR model: young mice and their mothers were exposed to 75% hyperoxic environment from day 7 to day 12 after birth of C57/B16 mice so that capillaries in the central retina rapidly disappeared. On day 12, the mice were returned to indoor air and the retinal blood vessels exposed to hyperoxia rapidly disappeared, which caused extensive abnormal neovascularization, and the central part of the retina remained largely avascular for a long time. After the blood vessels disappeared completely, the fusion protein (administration group, the doses of fusion protein I, protein II, protein III, protein IV, and protein V were all 64 μg) or physiological saline (negative group) was injected into the vitreous body on day 13. Retinal vessels were evaluated on day 17 (labeled as unclosed vessels, […] of Texas Red-labeled tomato lectin was injected into the left ventricle and cycled for 5 minutes).

Row | Molecule | A570 nm/A630 nm ([1]; 1 μg/mL) | PI ([1]; 1 μg/mL) [%] | A570 nm/A630 nm ([1]; 2 μg/mL) | PI ([1]; 2 μg/mL) [%] | A570 nm/A630 nm ([1]; 4 μg/mL) | PI ([1]; 4 μg/mL) [%] | A570 nm/A630 nm ([1]; 8 μg/mL) | PI ([1]; 8 μg/mL) [%] | A570 nm/A630 nm ([1]; 16 μg/mL) | PI ([1]; 16 μg/mL) [%] | A570 nm/A630 nm ([1]; 32 μg/mL) | PI ([1]; 32 μg/mL) [%] | A570 nm/A630 nm ([1]; 64 μg/mL) | PI ([1]; 64 μg/mL) [%] | A570 nm/A630 nm ([1]; 128 μg/mL) | PI ([1]; 128 μg/mL) [%] | A570 nm/A630 nm ([1]; 256 μg/mL) | PI ([1]; 256 μg/mL) [%] | Blood vessel number ([2]; 8 μg) | PI ([2]; 8 μg) [%] | also measured
1 | Protein III: mIgG4-Fc linked to antiangiogenesis polypeptide EDSM-Y via a flexible linker; SEQ ID NO: 19 (protein) [sequence of human IgG4 Fc with S228P F234A L235A (EU numbers) and a few adjoining residues not given]GGGGSGGGGSGGGGSFQPVLHLVALNSPLSGGMRGIRGADFQCFQQARAVGLAGTFRAGGGGRGD | 1.1125 ± 0.0403 | 17.42 | 0.9945 ± 0.0375 | 26.17 | 0.9168 ± 0.0362 | 31.94 | 0.8997 ± 0.0358 | 33.21 | 0.8347 ± 0.0274 | 38.04 | 0.7451 ± 0.0280 | 44.69 | 0.5974 ± 0.0193 | 55.65 | 0.3789 ± 0.0238 | 71.87 | 0.1453 ± 0.0247 | 89.21 | 93 ± 7 | 24.39 | Blood vessel number ([2]; 32 μg): 75 ± 1; PI ([2]; 32 μg): 39.02%; Blood vessel number ([2]; 128 μg): 49 ± 10; PI ([2]; 128 μg): 60.16%; inhibitory effect on angiogenesis of CAM [2]: ~50%; Area (mm^2) occupied by neovascular clusters [3]: 0.104 ± 0.041* mm^2; Reduce (%) [3]: 50.71%; Reduce (%) ([3]; listed as protein III): 50.71%
2 | Protein I: IgG1-Fc linked to antiangiogenesis polypeptide EDSM-Y via a flexible linker; SEQ ID NO: 15 (protein) [sequence of human IgG1 Fc not given]GGGGSGGGGSGGGGSFQPVLHLVALNSPLSGGMRGIRGADFQCFQQARAVGLAGTFRAGGGGRGD | 1.1856 ± 0.0395 | 11.99 | 1.0024 ± 0.0401 | 25.59 | 0.9248 ± 0.0383 | 31.35 | 0.9014 ± 0.0368 | 33.09 | 0.8314 ± 0.0344 | 38.28 | 0.7284 ± 0.0299 | 45.93 | 0.5879 ± 0.0327 | 56.36 | 0.3849 ± 0.0311 | 71.43 | 0.1488 ± 0.0296 | 88.95 | 93 ± 5 | 24.39 | Blood vessel number ([2]; 32 μg): 76 ± 2; PI ([2]; 32 μg): 38.21%; Blood vessel number ([2]; 128 μg): 50 ± 9; PI ([2]; 128 μg): 59.35%; inhibitory effect on angiogenesis of CAM [2]: ~50%; Area (mm^2) occupied by neovascular clusters [3]: 0.101 ± 0.036* mm^2; Reduce (%) [3]: 52.13%; Reduce (%) ([3]; listed as fusion protein I): 52.13%

Marks after values point to notes of the source that are not given here.
